In PMC4336329 (PLoS ONE, 2015):
About 14,000 (4.5%) of roughly 310,000 compounds showed an effect of 50% or more. Effects have a minus sign here. This is one part of the list.

Molecular target: human ether-à-go-go-related gene (hERG) potassium channel (human, UniProt Q12809)
Experiment: primary screen, population patch clamp on CHO cells stably expressing hERG
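Note: peak tail current of the secondary pulse compared with the same well before compound.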

Chain of human ether-à-go-go-related gene (hERG) potassium channel (Q12809 whole entry, looked up): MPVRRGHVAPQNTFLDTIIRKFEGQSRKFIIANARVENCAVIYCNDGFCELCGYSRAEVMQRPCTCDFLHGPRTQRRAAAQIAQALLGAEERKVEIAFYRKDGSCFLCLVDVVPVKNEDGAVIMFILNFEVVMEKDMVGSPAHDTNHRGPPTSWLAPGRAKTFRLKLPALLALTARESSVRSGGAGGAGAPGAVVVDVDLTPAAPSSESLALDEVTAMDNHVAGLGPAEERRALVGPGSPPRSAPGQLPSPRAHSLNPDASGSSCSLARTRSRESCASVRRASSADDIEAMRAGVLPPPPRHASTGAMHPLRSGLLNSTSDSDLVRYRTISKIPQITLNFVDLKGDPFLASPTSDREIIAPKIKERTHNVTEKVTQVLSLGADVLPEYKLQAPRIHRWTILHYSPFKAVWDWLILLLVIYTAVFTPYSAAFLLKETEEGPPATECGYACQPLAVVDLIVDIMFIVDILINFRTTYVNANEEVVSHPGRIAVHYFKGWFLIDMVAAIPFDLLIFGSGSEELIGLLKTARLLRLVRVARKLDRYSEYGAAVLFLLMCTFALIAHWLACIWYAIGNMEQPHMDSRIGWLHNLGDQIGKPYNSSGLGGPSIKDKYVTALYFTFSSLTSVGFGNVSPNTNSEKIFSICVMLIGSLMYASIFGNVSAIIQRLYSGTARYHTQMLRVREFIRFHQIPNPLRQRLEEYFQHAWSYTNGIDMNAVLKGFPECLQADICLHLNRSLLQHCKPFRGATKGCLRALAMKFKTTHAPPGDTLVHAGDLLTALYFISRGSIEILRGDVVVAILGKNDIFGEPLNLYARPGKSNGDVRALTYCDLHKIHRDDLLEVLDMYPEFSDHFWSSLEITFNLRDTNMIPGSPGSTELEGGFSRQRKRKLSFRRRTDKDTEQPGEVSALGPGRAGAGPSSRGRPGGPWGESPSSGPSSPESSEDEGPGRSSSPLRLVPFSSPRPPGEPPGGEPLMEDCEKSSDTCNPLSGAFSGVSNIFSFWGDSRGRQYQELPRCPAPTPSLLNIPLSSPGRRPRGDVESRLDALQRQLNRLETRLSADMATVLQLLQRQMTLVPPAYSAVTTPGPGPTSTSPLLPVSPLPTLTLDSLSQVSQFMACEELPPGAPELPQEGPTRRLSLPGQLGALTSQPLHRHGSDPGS

Structure (SMILES)	hERG current change (%, negative = inhibition) at 10uM
Cc1cn([C@H](C(=O)NCCCCCCCCCCC(=O)N2CCN(C(=O)OC(C)(C)C)CC2)[C@@H](C)O)nn1	13.9%
CC(=O)C1=C(O)C(=O)N(c2ccc(O)cc2)C1c1ccc([N+](=O)[O-])cc1 (centres unmarked)	8.11%
Cc1ccc(CS(=O)(=O)CCC(=O)NCc2ccccn2)cc1	8.71%
CCN(CC(=O)NCCc1ccc(S(N)(=O)=O)cc1)Cc1ccccc1	6.99%
CC(=O)NC(Cc1ccccc1)C(=O)OCC(=O)c1ccc(F)cc1 (centres unmarked)	1.03%
Cc1ccccc1S(=O)(=O)Nc1cccnc1	5.24%
COc1ccc(C(=O)Cc2ccccc2)cc1OC	0.147%
COC(=O)[C@@]1(Cc2ccc(OC)cc2)[C@H]2c3cc(C(=O)N4CCCC4)n(Cc4c(CO)[nH]cc(C)c4=O)c3C[C@H]2CN1C(=O)c1ccccc1	3.94%
CCCCCC(=O)Nc1ccc(N2CCN(S(C)(=O)=O)CC2)cc1	8.59%
CC(C)C(NC(=O)C1CCCCC1)C(=O)Nc1ccncc1 (centres unmarked)	9.18%
Cc1cc(NS(=O)(=O)c2ccc(NC(=O)CN3C(=O)NC(C)(c4ccccc4)C3=O)cc2)nc(C)n1 (centres unmarked)	2.9%
CCOC(=O)c1cc(-c2ccccc2)nc2ccc(C)cc12	23.8%
O=c1[nH]cnc2nn(-c3ccccc3)nc12	18.6%
CCCCN1C(=O)C(NC(=O)CC(C)C)(C(F)(F)F)C2=C1CC(C)(C)CC2=O (centres unmarked)	14.1%
C/C(=N/NC(=O)Cn1nc2ccccc2n1)c1ccc(F)cc1	-7.72%
CCOC(=O)C1=C(C)Nc2ccccc2N=C1NC(=O)CCCN1C(=O)c2ccccc2C1=O	1.36%
Cc1ccccc1C(=O)c1cccn1CC(=O)NC(C)c1ccc2c(c1)OCCO2 (centres unmarked)	-25%
CC(=O)Nc1ccc(S(=O)(=O)NCC(=O)OCC(=O)NCc2ccco2)cc1	-21%
COc1ccc(-c2nc(CSCC(=O)NCCCN3CCCC3=O)c(C)o2)cc1OC	14.8%
CC(O)CCC(=O)NCCNC(=O)CCC(C)O (centres unmarked)	15.7%
Cc1ccoc1C(=O)N1CCN(C(=O)c2occc2C)CC1	13.6%
C=CCC(O)c1c(-c2ccccc2)nn(C)c1Cl (centres unmarked)	23.1%

Structure (SMILES)	hERG current change (%, negative = inhibition) at 10uM
CCN(CC)Cc1c(O)ccc2c([N+](=O)[O-])c(C)n(-c3ccc(OC)cc3)c12	-24.9%
O=C1C2C3C=CC(C4CC34)C2C(=O)N1/N=C/c1ccc(-c2ccc(Cl)cc2[N+](=O)[O-])o1 (centres unmarked)	-13.5%
Cc1ccc(NC(=O)CC2C(=O)OCC3CCCCN32)cc1Cl (centres unmarked)	8.32%
CCOC(=O)c1c(NC(=O)c2cccs2)sc(C)c1C	3.46%
Cc1ccc(-c2ccc(C(=O)Nc3cccc(F)c3)o2)c2ccccc12	15.8%
CCOC(=O)CNC(=O)CSc1nnc(-c2ccccc2OC)n1CC	-1.54%
O=C(Cc1cccc2ccccc12)NCC(=O)N1CCN(Cc2cccc(C(F)(F)F)c2)CC1	-5.73%
O=C(Nc1ccccc1Cl)C1CC(=O)N(Cc2ccco2)C1 (centres unmarked)	-2.66%
COc1cccc(N2C(=NC(=O)CCc3ccccc3)SC3CS(=O)(=O)CC32)c1 (centres unmarked)	2.12%
CN1CCN(C(=O)CN(C)S(=O)(=O)c2ccc(F)cc2)CC1	16.8%
COc1ccc(NC(=O)C(c2ccc(OC)cc2)N(C)C(=O)c2cnccn2)cc1 (centres unmarked)	-19.7%
Cc1ccc(S(=O)(=O)Oc2ccc(C)cc2/C=N/N=C2\NC(=O)C(C)S2)cc1 (centres unmarked)	-3.66%
O=C(COC(=O)C1CC1)Nc1ncc(C(F)(F)F)cc1Cl	31.8%
CC(C)CCn1c(=O)c2ccccc2c2ccccc2c1=O	-16.8%
CCOC(=O)c1c2ccc(OCC(=O)NN)cc2n2ccccc12	29%
COC(=O)C(NS(=O)(=O)c1ccc(NC(C)=O)cc1)C(C)C (centres unmarked)	-0.58%
COCCNC(=O)CNC(=S)N(CCCN1CCOCC1)Cc1cccs1	14.1%
COC(=O)c1ccc(CNC(=O)Cn2cnnn2)cc1	17.3%
CCn1c(=O)cc(O)c2ccccc21	7.52%
CCc1ccc(Nc2nnc(SCn3nnc4ccccc4c3=O)s2)cc1	-14.5%
Cc1ccc(NC(=O)CSc2nnc(CCC(=O)O)c(=O)[nH]2)cc1	13.1%
O=C(COC(=O)CCCN1C(=O)c2ccccc2C1=O)Nc1ncc(Cl)cc1Cl	-9.74%
